± gives the uncertainty stated by the source. Shown are siRNA guide strands that differ only in the seed, positions 2 to 7.
Experiments:
HeyA8 = test: cell viability relative to lipid-only control; higher = less toxic; details: concentration: 10 nM; 96 h; Homo sapiens
Protocol: (§1)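 Arrayed screen of 4096 siRNA duplexes, each carrying one of all possible 6mer seeds at guide-strand positions 2-7 in a fixed neutral 19mer scaffold (constant flanks: U at position 1, then ACAUGUAAACCA, plus a 3' AA overhang). The passenger strand is 2'-O-methylated at positions 1-2 so only the guide strand loads into RISC. Duplexes were reverse-transfected at 10 nM with RNAiMAX in triplicate in 384-well plates; viability was read by CellTiter-Glo ATP content 96 h after transfection. Values are % viability normalised to lipid-only wells (HeyA8, H460, M565) or to siNT1 (3LL).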

H460 = test: as above; details: concentration: 10 nM; 96 h; Homo sapiens
Protocol: as §1

M565 = test: as above; details: concentration: 10 nM; 96 h; Mus musculus
Protocol: as §1

3LL = test: cell viability relative to siNT1 control; HeyA8 human ovarian and H460 human lung cancer; M565 mouse liver and 3LL mouse lung cancer; siNT1 is a non-toxic control siRNA; higher = less toxic; details: concentration: 10 nM; 96 h; Mus musculus
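Wherever cell viability relative to lipid-only control is given: reverse lipid transfection in 384-well plates, in triplicate, of duplexes on a non-toxic 19mer backbone with passenger strand 2′-O-methylated at positions 1 and 2, luminescence viability read-out.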
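Wherever cell viability relative to siNT1 control is given: Luminescence-based viability of cells reverse transfected in 384-well plates with lipid-complexed siRNAs built on a non-toxic 19mer backbone whose passenger strand carries 2′-O-methyl groups at positions 1 and 2, triplicates.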

Sequence | cell viability (HeyA8) [%] | cell viability (H460) [%] | cell viability (M565) [%] | cell viability (3LL) [%]
UCGCUGCACAUGUAAACCAAA | 30.8 ± 6.1 | 68.8 ± 2.8 | 9.85 ± 0.64 | 36.9 ± 8.1
UCGCUGGACAUGUAAACCAAA | 11.4 ± 0.76 | 43 ± 5 | 54.9 ± 1.9 | 63.6 ± 16
UCGCUGUACAUGUAAACCAAA | 77 ± 12 | 89.4 ± 3.5 | 31.8 ± 2.6 | 51.3 ± 13
UCGCUUAACAUGUAAACCAAA | 83 ± 2 | 71.6 ± 11 | 79.8 ± 7 | 101 ± 21
UCGCUUCACAUGUAAACCAAA | 50.1 ± 2.2 | 60 ± 7.6 | 29.7 ± 3 | 76.6 ± 19
UCGCUUGACAUGUAAACCAAA | 54.1 ± 3.9 | 69.1 ± 3.4 | 63.9 ± 9.6 | 87.6 ± 23
UCGCUUUACAUGUAAACCAAA | 69 ± 1.1 | 60 ± 4.4 | 56.5 ± 9.5 | 94.6 ± 22
UCGGAAAACAUGUAAACCAAA | 87.5 ± 7.9 | 65.5 ± 2.5 | 69.2 ± 9.4 | 92.9 ± 17
UCGGAACACAUGUAAACCAAA | 70.4 ± 2.7 | 47.8 ± 16 | 26.5 ± 5.3 | 76.3 ± 18
UCGGAAGACAUGUAAACCAAA | 80.8 ± 11 | 66.6 ± 12 | 65.3 ± 7.2 | 86.4 ± 17
UCGGAAUACAUGUAAACCAAA | 92.3 ± 4.9 | 70.2 ± 11 | 55.7 ± 7.3 | 95.9 ± 18
UCGGACAACAUGUAAACCAAA | 83.4 ± 3.7 | 52.7 ± 4.8 | 38.9 ± 3.1 | 96.4 ± 16
UCGGACCACAUGUAAACCAAA | 65.1 ± 4.1 | 65.7 ± 9.9 | 7.75 ± 1.6 | 36.9 ± 7.8
UCGGACGACAUGUAAACCAAA | 81.7 ± 6.4 | 55.6 ± 5.8 | 53.6 ± 2.1 | 84.9 ± 19
UCGGACUACAUGUAAACCAAA | 61.7 ± 2.3 | 42.9 ± 3 | 27.3 ± 6.1 | 41.3 ± 8.1
UCGGAGAACAUGUAAACCAAA | 66.9 ± 3.7 | 59.6 ± 6 | 61 ± 3.4 | 95.1 ± 14
UCGGAGCACAUGUAAACCAAA | 15.9 ± 2.3 | 18.9 ± 1.1 | 9.4 ± 3.1 | 14.5 ± 5.1
UCGGAGGACAUGUAAACCAAA | 7.06 ± 0.93 | 24.6 ± 4.5 | 24.1 ± 3.8 | 81.2 ± 18
UCGGAGUACAUGUAAACCAAA | 43.2 ± 3.8 | 44.6 ± 8 | 36.2 ± 4.3 | 75.8 ± 18

Sequence | cell viability (HeyA8) [%] | cell viability (H460) [%] | cell viability (M565) [%] | cell viability (3LL) [%]
UCGGAUAACAUGUAAACCAAA | 87.8 ± 14 | 67.4 ± 1.1 | 70.6 ± 16 | 90.5 ± 18
UCGGAUCACAUGUAAACCAAA | 22.2 ± 1.9 | 49.7 ± 3.6 | 29.8 ± 2.6 | 73.1 ± 18
UCGGAUGACAUGUAAACCAAA | 84.7 ± 11 | 67.5 ± 11 | 83.6 ± 13 | 93.4 ± 21
UCGGAUUACAUGUAAACCAAA | 83.7 ± 7.3 | 66.2 ± 13 | 45.2 ± 4.8 | 88.5 ± 13
UCGGCAAACAUGUAAACCAAA | 74.5 ± 6.3 | 63.3 ± 5.5 | 66.8 ± 6.6 | 92.6 ± 4.8
UCGGCACACAUGUAAACCAAA | 20.9 ± 1.6 | 40.2 ± 2.7 | 23.5 ± 3 | 50.9 ± 6.6
UCGGCAGACAUGUAAACCAAA | 48.8 ± 2.3 | 58.7 ± 3.4 | 27.3 ± 7.8 | 78.1 ± 14
UCGGCAUACAUGUAAACCAAA | 56.9 ± 2.3 | 58 ± 5.9 | 32.1 ± 4.4 | 71 ± 20
UCGGCCAACAUGUAAACCAAA | 69.8 ± 5.7 | 66.4 ± 7.9 | 29.1 ± 7.7 | 74.5 ± 20
UCGGCCCACAUGUAAACCAAA | 42.1 ± 3.5 | 48.9 ± 5.4 | 29.7 ± 3.2 | 14 ± 4.9
UCGGCCGACAUGUAAACCAAA | 45 ± 6.5 | 51.2 ± 6 | 25.5 ± 1.9 | 93.5 ± 17
UCGGCCUACAUGUAAACCAAA | 47.8 ± 4.8 | 53.5 ± 9.6 | 22 ± 6.2 | 47 ± 12
UCGGCGAACAUGUAAACCAAA | 58.8 ± 1.9 | 51.7 ± 5.2 | 45.8 ± 6.2 | 94.7 ± 5.9
UCGGCGCACAUGUAAACCAAA | 11.3 ± 1.3 | 24.1 ± 1.3 | 19.1 ± 2.5 | 43.3 ± 5.7
UCGGCGGACAUGUAAACCAAA | 7.97 ± 0.97 | 23.7 ± 1.2 | 22.4 ± 2 | 44.1 ± 10
UCGGCGUACAUGUAAACCAAA | 21.2 ± 1.8 | 30.4 ± 1.1 | 29.4 ± 3 | 92.6 ± 14
UCGGCUAACAUGUAAACCAAA | 72.5 ± 7.8 | 83.2 ± 6.8 | 69.7 ± 5.5 | 97.5 ± 16
UCGGCUCACAUGUAAACCAAA | 8.9 ± 1.1 | 20.3 ± 1.7 | 68.2 ± 7.3 | 6.79 ± 0.78
UCGGCUGACAUGUAAACCAAA | 29.5 ± 1.3 | 53.5 ± 4.3 | 46.1 ± 3 | 95.5 ± 15

Sequence | cell viability (HeyA8) [%] | cell viability (H460) [%] | cell viability (M565) [%] | cell viability (3LL) [%]
UCGGCUUACAUGUAAACCAAA | 54.3 ± 1.1 | 90.3 ± 14 | 42.9 ± 6.2 | 82.1 ± 6.7
UCGGGAAACAUGUAAACCAAA | 85.2 ± 5.9 | 64 ± 11 | 72.4 ± 1.5 | 92.6 ± 15
UCGGGACACAUGUAAACCAAA | 64.43 ± 0.62 | 47.6 ± 4.4 | 22 ± 4.6 | 80.6 ± 11
UCGGGAGACAUGUAAACCAAA | 58.4 ± 1.5 | 54.1 ± 4.9 | 49.7 ± 2.6 | 88.1 ± 18
UCGGGAUACAUGUAAACCAAA | 52.8 ± 4.4 | 54.9 ± 5.6 | 23.7 ± 3.8 | 64.6 ± 13
UCGGGCAACAUGUAAACCAAA | 33.1 ± 7.1 | 58.3 ± 11 | 32.6 ± 9.4 | 65.5 ± 15
UCGGGCCACAUGUAAACCAAA | 4.52 ± 0.096 | 18.2 ± 2.5 | 4.07 ± 0.048 | 8.41 ± 2.9
UCGGGCGACAUGUAAACCAAA | 37.2 ± 4.1 | 41.7 ± 4.9 | 47.8 ± 3.5 | 84.2 ± 23
UCGGGCUACAUGUAAACCAAA | 6.17 ± 0.37 | 32.3 ± 0.35 | 10 ± 1.8 | 24.1 ± 1.1
UCGGGGAACAUGUAAACCAAA | 44.8 ± 7.2 | 58.8 ± 4.4 | 74.7 ± 4 | 90.6 ± 12
UCGGGGCACAUGUAAACCAAA | 2.48 ± 0.42 | 13.4 ± 1.2 | 19.7 ± 1.4 | 14.8 ± 3.9
UCGGGGGACAUGUAAACCAAA | 4.27 ± 0.8 | 9.28 ± 0.96 | 8.23 ± 4 | 66.3 ± 18
UCGGGGUACAUGUAAACCAAA | 6.21 ± 1.2 | 20.4 ± 2.2 | 28.8 ± 4.2 | 36.1 ± 12
UCGGGUAACAUGUAAACCAAA | 69.2 ± 13 | 73.6 ± 15 | 66.4 ± 8.1 | 87.9 ± 7.2
UCGGGUCACAUGUAAACCAAA | 4.22 ± 0.4 | 14 ± 1.9 | 16.9 ± 1.6 | 21.3 ± 2.3
UCGGGUGACAUGUAAACCAAA | 58.3 ± 2.9 | 72.9 ± 3.4 | 65.2 ± 2.1 | 93.7 ± 15
UCGGGUUACAUGUAAACCAAA | 51.3 ± 6.9 | 68.7 ± 10 | 41.4 ± 3.6 | 87.1 ± 15
UCGGUAAACAUGUAAACCAAA | 93.3 ± 3.8 | 83.7 ± 10 | 83.7 ± 15 | 93.3 ± 15
UCGGUACACAUGUAAACCAAA | 60.9 ± 3.8 | 57.8 ± 9.8 | 16.7 ± 1 | 67.5 ± 6.6

Source: the supplement of paper PMC6206098
